Test results: patent US20200347144A1 (SHANGHAI HYAMAB BIOTECH, published 2020)

Molecular target: T1, his-muCD8a-4-1BBL^ECD fusion protein (mouse, UniProt P01731 28-194; P41273 in part)
T1 construct: also called 4-1BB ligand protein; not shown: his-tag on the N side
Test: ELISA: 4-1BB-hFc coated at 0.5 µg/mL, his-muCD8a-4-1BBL titrated, detection by biotin anti-mouse CD8a and streptavidin-HRP, OD450

B1: hFc-tagged human 4-1BB extracellular domain protein (4-1BB-hFc) (Fc fusion)
chain: not shown
notes: also called immunogen A; 4-1BB^ECD-hFc; not shown: human IgG Fc fragment (hFc) of the pCpC vector
binding result: binds
